Measured values as given in PubChem BioAssay AID720709 (National Center for Advancing Translational Sciences (NCATS), 2013).
About 520 (0.14%) of roughly 360,000 compounds were called active. Inconclusive means that the source gave no clear call. Such entries were picked first, then a sample of the others. Calls come from the whole dose curve; as a rule, active = well fitted inhibition curve with a large enough effect; inconclusive = small, poorly fitted or top-dose-only effect; inactive = no such curve, though single readings can be large or run the other way. Potencies of inconclusive entries are left out as doubtful fits.

The molecules below were run against Rap guanine nucleotide exchange factor 3 (Homo sapiens) (UniProt O95398) (assay: qHTS for Antagonist of cAMP-regulated guanine nucleotide exchange factor 3 (EPAC1): primary screen). Details: EPAC1 GEF assay, Rap1b-BODIPY-GDP exchange fluorescence; activity change, negative = inhibition: at 115 µM (top of the series).
Sequence of UniProt O95398 (O95398 whole entry, looked up): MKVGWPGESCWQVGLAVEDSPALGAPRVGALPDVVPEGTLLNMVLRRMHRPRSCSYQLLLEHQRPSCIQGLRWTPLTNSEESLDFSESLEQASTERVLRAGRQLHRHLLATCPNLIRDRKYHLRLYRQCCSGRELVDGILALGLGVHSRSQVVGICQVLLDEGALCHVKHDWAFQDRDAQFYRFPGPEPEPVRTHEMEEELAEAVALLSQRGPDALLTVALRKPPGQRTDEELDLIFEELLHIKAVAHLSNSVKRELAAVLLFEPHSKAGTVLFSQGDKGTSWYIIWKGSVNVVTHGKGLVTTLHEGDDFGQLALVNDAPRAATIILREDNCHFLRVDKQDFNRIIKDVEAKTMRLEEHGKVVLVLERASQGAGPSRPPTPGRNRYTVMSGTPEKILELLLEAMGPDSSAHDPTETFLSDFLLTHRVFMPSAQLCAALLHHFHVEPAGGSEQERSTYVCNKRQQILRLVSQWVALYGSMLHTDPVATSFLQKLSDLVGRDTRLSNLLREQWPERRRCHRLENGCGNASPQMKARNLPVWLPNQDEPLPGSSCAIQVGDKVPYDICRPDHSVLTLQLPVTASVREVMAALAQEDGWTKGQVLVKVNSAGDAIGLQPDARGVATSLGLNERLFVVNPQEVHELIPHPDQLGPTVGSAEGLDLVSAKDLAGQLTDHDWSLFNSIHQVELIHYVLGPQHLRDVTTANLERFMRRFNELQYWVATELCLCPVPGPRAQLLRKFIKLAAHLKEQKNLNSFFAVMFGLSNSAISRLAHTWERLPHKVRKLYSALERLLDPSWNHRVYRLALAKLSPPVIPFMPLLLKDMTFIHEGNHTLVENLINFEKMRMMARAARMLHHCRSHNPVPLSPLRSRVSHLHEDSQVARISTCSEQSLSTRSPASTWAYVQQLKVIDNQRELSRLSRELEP
Note: nearly all actives have a fitted effect of over 50% in size.
Potency is the fitted concentration of half-maximal effect; tags give direction and shape of the fitted curve.
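Throughout, for activity change, negative = inhibition: plate controls were vehicle for no effect and positive control for full effect.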

Question: How did the Potency turn out when `O=C(COC(=O)c1cc(=O)[nH]c2ccccc12)Nc1nc(-c2ccc(F)cc2)cs1` was run?
Answer: inconclusive [inhibitor, partial curve]

Question: `CC1CC(=O)c2c(cc3c(-c4c(O)cc(O)c5c(O)c6c(cc45)OC(C)CC6=O)c(O)cc(O)c3c2O)O1` (centres undefined) was tested. Which Potency did it give?
Answer: inconclusive [inhibitor, full curve, poor fit]

Question: Which Potency does the source give for `COCCNC(=O)c1ccc(-c2ccc(OC)cc2C)c2ccoc12` here?
Answer: inconclusive [inhibitor, partial curve]

Question: Which Potency does the source give for `O=C(N/N=C/c1cccc2ccccc12)c1cc2ccccc2o1` here?
Answer: inconclusive [inhibitor, full curve, poor fit]

Question: `O=C(N/N=C\c1ccc(Sc2ccccn2)o1)c1cccc(F)c1` was tested. Which Potency did it give?
Answer: inactive

Question: For `O=C(NC1(O)C(=O)c2ccccc2C1=O)c1ccccc1`, which Potency is on record?
Answer: inconclusive [inhibitor, partial curve]

Question: For `CCNC(=O)C[C@@H]1C=C[C@@H](NS(=O)(=O)c2ccc(F)cc2)[C@@H](CO)O1`, which Potency is on record?
Answer: inactive

Question: `O=C(O)c1cnn(-c2nc(-c3ccc(Cl)cc3)cs2)c1C(F)(F)F` was tested. Which Potency did it give?
Answer: inactive

Question: With `CC(C)C[C@@H](COCc1cccc(Cl)c1)N1CCN(C(=O)c2cccc(C(F)(F)F)c2)CCC1=O` as the molecule, how does the Potency read?
Answer: inconclusive [inhibitor, single point]

Question: With `CC(=O)N(\C=C/C=C/C=C1\Sc2ccccc2C1=O)c1ccccc1` as the molecule, how does the Potency read?
Answer: inconclusive [inhibitor, partial curve]

Question: How did the Potency turn out when `Cc1cc(SC(C)C(=O)O)nc2ccccc12` (centres undefined) was run?
Answer: inconclusive [inhibitor, partial curve, poor fit]

Question: How did the Potency turn out when `CC(=O)c1cccc(NC(=O)c2cc(C(C)C)on2)c1` was run?
Answer: inactive

Question: For `CCCc1ccc(C(=O)NNc2cccc(C)c2)cc1`, which Potency is on record?
Answer: inconclusive [inhibitor, partial curve]

Question: `CC1(C)C[C@H]2C3=CCC4[C@@]5(C)CC[C@H](O)[C@](C)(CO)C5CC[C@@]4(C)[C@]3(C)CC[C@@]2(C)[C@H](O)[C@@H]1O` (some centres undefined) was tested. Which Potency did it give?
Answer: inconclusive [inhibitor, full curve, poor fit]

Question: Which Potency does the source give for `FC(F)Oc1ccc(NC(=S)N2CCN(Cc3ccccc3)CC2)cc1` here?
Answer: inconclusive [inhibitor, full curve, poor fit]

Question: With `CC(C)n1ncc2c(C(=O)NCCc3ccc(F)cc3)cc(C3CC3)nc21` as the molecule, how does the activity change, negative = inhibition read?
Answer: inconclusive: -17.1% [inhibitor]

Question: For `Cc1ccc(-n2nc3c(=O)n(CC(=O)NC4CCCCC4)nc(C)c3c2C)cc1`, which Potency is on record?
Answer: inconclusive [inhibitor, partial curve]

Question: Which Potency does the source give for `O=C(CS(=O)(=O)c1ccccc1)Nc1ccc(Cl)cn1` here?
Answer: inactive

Question: How did the Potency turn out when `CCOC(=O)N1CCN(CC(=O)Nc2ccc(F)c(F)c2)CC1` was run?
Answer: inconclusive [inhibitor, full curve, poor fit]

Question: `CCOC(=O)c1c(NC(=O)CSc2nc3cc(Cl)ccc3c(=O)n2Cc2ccco2)sc(C(=O)N(C)C)c1C` was tested. Which Potency did it give?
Answer: inconclusive [inhibitor, single point]

Question: Which Potency does the source give for `COc1ccc(-n2c(SCC(=O)Nc3cccc4ccccc34)nc(O)cc2=O)cc1` here?
Answer: inconclusive [inhibitor, partial curve]

Question: For `O=S(=O)(Nc1ccc(S(=O)(=O)Nc2nccs2)cc1)c1ccc(Br)cc1`, which Potency is on record?
Answer: inconclusive [inhibitor, full curve, poor fit]

Question: `O=C(Cc1ccc(S(=O)(=O)N2CCOCC2)s1)N1CCN(c2ccc(C(F)(F)F)cc2[N+](=O)[O-])CC1` was tested. Which Potency did it give?
Answer: inconclusive [inhibitor, partial curve]

Question: For `CC(C)C[C@H](NC(=O)C1(c2ccccc2)CCN(C(=O)OC(C)(C)C)CC1)C(=O)N1CCC[C@H]1C(=O)O`, which Potency is on record?
Answer: inconclusive [inhibitor, partial curve]

Question: With `Cc1c(NC(=O)c2nn3c(C(F)(F)F)cc(-c4ccccc4)nc3c2Br)c(=O)n(-c2ccccc2)n1C` as the molecule, how does the Potency read?
Answer: inconclusive [inhibitor, partial curve]

Question: How did the activity change, negative = inhibition turn out when `COC(=O)c1ccccc1NC(=O)CSc1nc(N)cc(N)n1` was run?
Answer: inconclusive: -12.4% [inhibitor]

Question: Which Potency does the source give for `CN(C)c1ccc(NC(=O)c2ccc(N3CCOCC3)nc2)cc1` here?
Answer: inactive

Question: `O=C(N/N=C/c1c(F)cccc1Cl)c1cc(C2CC2)[nH]n1` was tested. Which Potency did it give?
Answer: inconclusive [inhibitor, partial curve]

Question: How did the Potency turn out when `COc1ccc2c(Cl)c(C(=O)N/N=C3\CCCC(=O)C3)sc2c1` was run?
Answer: inconclusive [inhibitor, single point]

Question: How did the Potency turn out when `COc1ccc(C(=O)N2N=C(c3cccs3)CC2c2ccccc2O)cc1` (centres undefined) was run?
Answer: inconclusive [inhibitor, full curve, poor fit]

Question: `Cc1c(CC(=O)N2C[C@H]3C[C@@H](C2)c2cccc(=O)n2C3)c(=O)oc2cc3occ(C(C)(C)C)c3cc12` was tested. Which Potency did it give?
Answer: inconclusive [inhibitor, partial curve]

Question: Which Potency does the source give for `CCOc1cc(/C=N/Nc2ccc(S(=O)(=O)Nc3ccccc3C(=O)O)cc2[N+](=O)[O-])cc(Cl)c1O` here?
Answer: active: 50.1 µM

Question: `C=CCOC(=O)C1=C(C)Nc2nnnn2C1c1cccc(OC)c1OC` (centres undefined) was tested. Which Potency did it give?
Answer: inactive

Question: For `COc1ccc(NC(=O)CO/N=C2/CCCc3nonc32)c(OC)c1`, which Potency is on record?
Answer: inconclusive [inhibitor, partial curve, poor fit]

Question: For `COc1ccc(OC)c(S(=O)(=O)NC2CCCCNC2=O)c1` (centres undefined), which Potency is on record?
Answer: inconclusive [inhibitor, single point]

Question: For `O=C1C2C3CCC(C3NCc3ccccc3)C2C(=O)N1Cc1ccccc1` (centres undefined), which Potency is on record?
Answer: inconclusive [inhibitor, full curve, poor fit]

Question: With `COc1ccc(S(=O)(=O)Nc2cc(SCC(=O)O)c(O)c3ccccc23)cc1` as the molecule, how does the Potency read?
Answer: active: 79.4 µM

Question: Which Potency does the source give for `COC(=O)[C@]12CCCCC=C1N(CCC1=CCCCC1)C(=O)[C@H](CC(=O)N1CCN(C(=O)c3ccco3)CC1)C2` here?
Answer: inactive

Question: With `O=C1CN(C(=O)c2cccc(F)c2)C(c2ccc(F)cc2)c2cc(F)ccc2N1` (centres undefined) as the molecule, how does the Potency read?
Answer: inconclusive [inhibitor, full curve, poor fit]
